The whole screen tested about 91,000 compounds, of which about 130 (0.14%) were called active. Inconclusive results, whose numbers are uncertain, are shown with a selection of clear calls. Calls follow the shape of the dose curve; as a rule, active = well fitted inhibition curve with a large enough effect; inconclusive = small, poorly fitted or top-dose-only effect; inactive = flat fitted curve, though single readings scatter. A potency beside an inconclusive call is a rough fit, not a confirmed value.
These compounds were tested on Uracil-DNA glycosylase (assay: Primary qHTS assay for inhibitors of Activation Induced Cytidine Deaminase (AID): UDG Counterscreen signal). Details: FRET deamination/UDG coupled assay, UDG read, 4 h; series mostly up to 115 µM.
For Cc1cc(C)c(/C=C/C(=O)Nc2sccc2C#N)cc1C, the Potency was “inactive”. With Cc1cc(NC(=O)COC(=O)C2(c3cccc(F)c3)CCCC2)no1 the Potency was “inactive”. For Cc1ccc(-c2nc3ccccc3n2CCNC(=O)Nc2cccc(F)c2)cc1, the Potency was inconclusive: 70.8 µM [inhibitor, single point]. For COc1ccc(-c2c(C)oc3cc(OCC(=O)NCCC4=CCCCC4)ccc3c2=O)cc1, the Potency was inconclusive: 70.8 µM [inhibitor, partial curve, poor fit]. For Cc1ccc2oc(C(=O)N(Cc3ccccc3F)C3CCS(=O)(=O)C3)c(C)c2c1 (configuration not stated), the Potency was inconclusive: 89.1 µM [inhibitor, partial curve, poor fit]. With Cc1cccc(C)c1Nc1c(-c2ccc(Cl)s2)nc2ncccn12 the Potency was inconclusive: 89.1 µM [inhibitor, single point]. With O=S1(=O)CCN(Cc2ccccc2)c2c(F)nc(N3CCOCC3)c(F)c21 the Potency was “inactive”. With CCCC(C)(C)NC(=O)Cc1ccc(OC)c(OC)c1 the Potency was “inactive”. With CCS(=O)(=O)N1N=C(c2ccc(C)cc2)CC1c1cc2ccc(OC)cc2nc1Cl (configuration not stated) the Potency was inconclusive: 89.1 µM [inhibitor, partial curve, poor fit]. In the case of COC(=O)c1ccc(OC)cc1OCc1ccc(C#N)cc1, the Potency is reported as “inactive”. For COc1ccccc1/C=C/C=C(/C#N)c1nc2ccccc2[nH]1, the Potency was “inactive”. For Cc1c(Cl)ccc2sc(N3CCN(C(=O)c4ccco4)CC3)nc12, the Potency was inconclusive: 79.4 µM [inhibitor, partial curve, poor fit]. With COc1ccccc1CNc1ccc(-c2nc(C(C)C)no2)cc1[N+](=O)[O-] the Potency was inconclusive: 100 µM [inhibitor, single point]. Cc1ccccc1-c1nc(CNC(=O)Nc2ccccc2)c(C)o1 was tested, and the Potency was inconclusive: 79.4 µM [inhibitor, single point]. For CCC(C)(C)C1CCc2c(sc(NC(=O)C3c4ccccc4Oc4ccccc43)c2C(N)=O)C1 (configuration not stated), the Potency was inconclusive: 89.1 µM [inhibitor, partial curve, poor fit]. With CCOC(=O)c1c(S(=O)(=O)N2CCCC(C(=O)N3CCN(c4cccc(C)c4C)CC3)C2)c(C)n(C)c1C (configuration not stated) the Potency was inconclusive: 89.1 µM [inhibitor, single point]. CC(C)=CC(=O)Nc1ccccc1SC1CCCC1 was tested, and the Potency was “inactive”. COc1ccc(OC)c(CNC(=O)CN(C(=O)C2=C(C)OCCS2)c2ccc(Cl)cc2)c1 was tested, and the Potency was inconclusive: 89.1 µM [inhibitor, single point]. COC(=O)c1c(SC)nc2ccccc2c1OCc1ccccc1C was tested, and the Potency was inconclusive: 79.4 µM [inhibitor, single point]. In the case of CCCOc1ccc(CNC(=O)C(CC)n2nc(C)c3sc4ccccc4c3c2=O)cc1 (configuration not stated), the Potency is reported as inconclusive: 100 µM [inhibitor, single point]. With CCOc1ccc2nc(C)cc(Nc3ccccc3OCC)c2c1 the Potency was inconclusive: 89.1 µM [inhibitor, single point]. With COc1ccc(C2c3c(-c4c(C)cc(C)cc4O)n[nH]c3C(=O)N2Cc2ccco2)cc1 (configuration not stated) the Potency was inconclusive: 89.1 µM [inhibitor, partial curve, poor fit]. With CCOc1cc(-c2nc3c(c(CC)nn3-c3ccccc3)c3cc(OC)c(OC)cc23)ccc1O the Potency was inconclusive: 63.1 µM [inhibitor, partial curve, poor fit]. In the case of Cc1ccc2c(c1)NC(c1cccnc1)=NC(c1ccc(F)cc1)=N2, the Potency is reported as inconclusive: 56.2 µM [inhibitor, partial curve, poor fit]. With Cc1ccc(C(=O)Nc2ccc(-c3nc4ccccc4s3)c(C)c2)cc1 the Potency was “inactive”. With CCc1ccc(CN(Cc2cn[nH]c2-c2ccc(OC)cc2)C(=O)Nc2ccc(C)c(F)c2)cc1 the Potency was inconclusive: 70.8 µM [inhibitor, single point]. In the case of Cc1ccc(CN(Cc2ccco2)C(=O)COc2cc(C)c(Cl)c(C)c2)cc1, the Potency is reported as inconclusive: 63.1 µM [inhibitor, partial curve, poor fit]. With COc1ccc(-n2c(CC3C(=O)N(C)c4ccc(C)cc43)nc3ccccc3c2=O)cc1 (configuration not stated) the Potency was inconclusive: 63.1 µM [inhibitor, partial curve, poor fit]. In the case of COc1ccc(CCNc2ncnc3c2cnn3-c2ccc(C)cc2)cc1, the Potency is reported as inconclusive: 50.1 µM [inhibitor, partial curve, poor fit]. In the case of CC1CCCN(C(C)C(=O)N(C)CC(=O)Nc2ccccc2C(F)(F)F)C1 (configuration not stated), the Potency is reported as “inactive”. In the case of Cc1ccc(C(=O)NCCc2nc3cc(NC(=O)C4CCCCC4)ccc3n2C)cc1F, the Potency is reported as “inactive”. With COc1ccc(-c2noc(CSc3nnc(-c4ccncc4)n3-c3ccc(C)cc3)n2)cc1OC the Potency was inconclusive: 79.4 µM [inhibitor, partial curve, poor fit]. For N#C/C(=C\c1ccnc2ccccc12)c1nc2ccccc2s1, the Potency was active: 79.4 µM. CC1CCCCN1C(=O)Cn1c(SCC(=O)N(C)c2ccccc2)nc2ccccc21 (configuration not stated) was tested, and the Potency was inconclusive: 89.1 µM [inhibitor, single point]. In the case of O=C(NCc1ccc(Cl)cc1)c1cnc(N2CCCCC2)c2ccccc12, the Potency is reported as inconclusive: 89.1 µM [inhibitor, single point]. O=C(O)c1cc(-n2c(/C=C\c3ccc(F)cc3)nc3ccccc3c2=O)ccc1Cl was tested, and the Potency was active: 89.1 µM. Cc1ccc(-c2c(-c3cn4ccc(C)cc4n3)c(=O)n(C)c(=O)n2C)cc1 was tested, and the Potency was “inactive”. With Cc1ccc(Nc2c(-c3c[nH]c4ccccc34)nc3cc(C)ccn23)cc1 the Potency was active: 79.4 µM. COc1ccc(-c2nn3c(=O)cc(CN4CCN(C(=O)c5ccc(C(C)(C)C)cc5)CC4)nc3s2)cc1 was tested, and the Potency was inconclusive: 89.1 µM [inhibitor, single point]. With Cc1ccc(Oc2c(C(F)(F)F)oc3c(CN4CCCCC4C)c(O)ccc3c2=O)cc1 (configuration not stated) the Potency was inconclusive: 89.1 µM [inhibitor, single point]. With FC(F)(F)c1cccc(-c2csc(-c3ccncc3)n2)c1 the Potency was “inactive”. CCn1c(C(=O)NCCc2ccc(OC)c(OC)c2)cc2sc(Cl)cc21 was tested, and the Potency was inconclusive: 25.1 µM [inhibitor, partial curve, poor fit].
Also: nearly all actives have a fitted effect of over 65% in size.
Potency is read from the fitted curve at half-maximal effect; tags tell the direction and shape of the fitted curve.
